Our source for the self-cleavage values is the RNAGym collection of RNA variant scans (doi:10.7554/elife.90254).

The source gives no read counts; variants with many changes may rest on few reads.

The chains are these.
B1: LINE1-mini (parent)
chain: GGCAGAGCUCAACACAGCGUGGCAAAGUGGCUGUGGCUAGACUGCC

The data set covers variants of B1. Put plainly: self-cleavage, relative activity (ratio to wild type); higher = more cleavage; in vitro, sequencing; the parent is a self-cleaving ribozyme.
Turning to GGCACAGCUCAAUACAGCGUGGCAAACUGGCUGUGGCUAGGCUGCC, the self-cleavage is 0.03.

Regarding GGCACAGCUCAACACAGCGUGGCAAAUUGGCUGUGGCUUGACUGCC, the self-cleavage turned out to be 0.01. On to GGCACAGCUCAACACAGUGUGGCAAAGGGGCUGUGGCUAGACUGCC, for which the self-cleavage is 0.01.

As to GGCACAGCUCAACACAGCGUGGCAGAGUGGCUGUGGCUGCACUGCC, the self-cleavage is 0.04. Then GGCACAGCUCAACACAGCGUGGCUAAAUGGCUGUGGCUAGACUGCC, with 0.06. Then GGCACAGCUCAACACAGCGUGGAAAAGUGGCUCUGGCUAGACUGCC, with 0.06; and GGCACAGCUCAACACAGCGUGUCAAAGUGGAGGUGGCUAGACUGCC, with 0.25. Then GGCACAGCUCAACACAGCGUGGCAACGUGGCUGUGGCUAGACUUCC, with 0.03. Regarding GGCACAGGUCAACACAGCGUGGUAACCUGGCUGUGGCGAGACUGCC, the self-cleavage is 0.03. As for GGCACAGCUGAAAACAGCGUGUCAAAGUGGCUGUGGCUAGACUGCC, the self-cleavage came to 0.03.

For the variant GGCACAGCUAAACACAGCGUGUCAAAGUGGCUGUGGCUAGACUGCC, the self-cleavage came out at 0.01. Then GGCACAGCUCAAAACAGCGUGGCAAAGUGGCUGUGGCUAGACAGUC, with 0.02. For the variant GGCACAGCUAAACACAGCGUGGUAAAGUGGCUGUGGCUAGACUGCC, the self-cleavage turned out to be 0.02. Then GGCACAGCUCAACACAGCGUGGCAAACUGGCCGUGGCCAAACUGCU, with 0.06. Then GGCACAGCUCAACACAGCGUGGCGAAGUGGCUGUGGCUAGACUGCG, with 0.03; and GGCACAGCUCAACACAGCAUGGCAAAGUGGCUAUGGCUAAACUGCC, with 0.68; and GGCACAGCUCAACACAGCGUGGUAAAGUGGCUGUGCCUAGAUUGCC, with 0.07. With GGCACAGAUAAACAAAGCGUGGCAAACUGACUAUGGCUAGACUGCC, the self-cleavage came to 0.03. For the variant GGCACAGGUCAACACAGCGUGGCCAAGUGGCUGUGGCUAGACUGCC, the self-cleavage turned out to be 0.04. Then GGCACAACUCAACACAGCGUGCCAAAUUGGCUGUGGCUCGACUGCC, with 0.07; and GGCACAGCUCAACACAGCGUGGCAAAGUGGCUGUGGAUAUACUGCC, with 0.04; and GGCACAGCUAAACACAGCGUGGCAAAGUGGCUGUAGCUUGACUGCC, with 0.04.

In the case of GGCACAGCUCAAAAUAGCGUGGCAAAGUGGCUGUGGCUAGACUGCC, the self-cleavage worked out at 0.06. Then GGCACAACUCAACCCAGCGUGGCAAAGUGGCUGUCGCUAGACUGCC, with 0.02; and GGCACAGCUCAACACAACGUGGCAAAGUGGCUGUGGCUAGAGUCCC, with 0. Regarding GGCACAGCUCAACACAGUCUGAGAAAGUGGCUGUGGCUAGACUUCC, the self-cleavage worked out at 0.02. As for GGCACAGGUCGACACAGCGUGUCAAAGUGGCUGUGGCUAGAAUGCC, the self-cleavage stood at 0.04.

On to GGCACAUCUCAACACAGCGUGGUAAAGUGGCUGUGGCUACACUGCC, for which the self-cleavage amounted to 0.41. Then GGCACAGCUCAACACAGCGUGGAAAAGUGGCUGUGGCUAGACUGCG, with 0.04; and GGCACAGCUCAAAACAGCUCGGCAAAGUGGCUGUGGCUAGACUGCC, with 0.07; and GGCACAGCUCAAGACAGGGUGGCAAAGUGUCUGUGGCUAGACUGCC, with 0.05.

In the case of GGCACAGCUCAAUCCAGCGUGGCAACGUUGCUGUGGAUAGACUGCC, the self-cleavage came out at 0.97. Regarding GGCACAGCUCAACACGGCGUGACAAAGUGGCUGUGGCUAGACUGCC, the self-cleavage turned out to be 0.04.

Regarding GGCACAGCUCAACACAGCGUGUCAAAGUGGAUGUGGCUAGACUGCC, the self-cleavage was 0.03. Then GGCACAGCUCAACAAAGCGUGGUACAAUGGCUGUGGCUAGGCUGCC, with 0.02; and GGCACAGAUCAACACAGCGUGUCAAAGUGGGUGAGGCUUGACUGCC, with 0.12. Then GGCACAGCUCAACACACCGUGGCUAACUGGCUGUGGCUAGACUGCC, with 0.01; and GGCACAUCUCCACACAGCGUGGCAAAGUGGUUGUGGCUAGACUCCC, with 0.02. Then GGCACAGCUCAACACAACGUACCAAAGUGGCUGUGGCUAGGCUGCA, with 0.08. Consider GGCACAUCUCAACACAGCGUGGCAAAGUGGCUGUGUCUAGACUGCC, for which the self-cleavage amounted to 0.26.

In the case of GGCACAGCUAAACACAGCGUGGCAAAGUGGAUGUGGCUAAACUGCC, the self-cleavage is 0. Then GGCACAGCUCAACACAGCGUGUCAAAGUGGCUGUGGUUAGACUGCC, with 0.02.

GGCACAGCUGAACACAGCGUGGCAAAAUGUCUGUGGCUAGAUUUCC: the self-cleavage amounted to 0.

As for GGCACAGCUCAACAUAGCGUGGCAAAGUGCCUGUGGAUAGAGUGCC, the self-cleavage amounted to 0.

For GGCACAGCUCAACAAAGCGUGGCAAAGUGGCCGUACCUAGAAUGCC, the self-cleavage is 0.01. Then GGCACAGCUCAACACAUCGUGGCAAAGUGGCUGUGGCUAAACUGCC, with 0.03; and GGCACAGGUCAACACAGCAUGGCAAAGAGUCUGUGGCUAGACUGCC, with 0.06; and GGCACAGCUCAACACAGUGUGGCAAAGUGGCUGUGGCUAGACUUCC, with 0.06. Then GGCACAGCUCAACACAGUGUGGUAAAGUGGCUGUGGCUAGUCUGCG, with 0.04. Then GGCACAGCUAAACACAGCGUGGCAAAAUGGCUGUGGCUAGACUGCC, with 0. Consider GGCACAGCUCAAUACAGCGUGGCAAAAUGGCGGUGGCUUGACUGCC, for which the self-cleavage was determined as 0.02. Then GGCACAGCUCAACACAGCGUGACAAAGUGGCUGUGGCUAGAUUGCC, with 0.05. Turning to GGCACAGCUCAACAAAGCGUGGGAAAGUGGCUGUGGCUAGAGUGCU, the self-cleavage amounted to 0.01.

For GGCACAGCUCAACACAGCGUGGGAAAGUGGCUGAGGCUAGACUGCC, the self-cleavage worked out at 0.04.

Consider GGCACAGCUCAAGACAGCGUGGGAAAGUGGCUGUGGCUAGACUGCC, for which the self-cleavage worked out at 0.35.

GGCACAGCUCAACACAGCGUGGAAUGGUGGCUGUGGCUAGACUGCC: the self-cleavage amounted to 0.01. Then GGCACAGCUCAACACAGCGUGGCCAGGUGGCUGUGGCUAGACUGCC, with 0; and GGCACAGCUCAACACAGCGUGGCAAAGUGGGUGUGGAUAGGCUGCC, with 0.03.

Regarding GGCACAGCUCAACAGAGCGUGGCAAAGUAGCUGUGGCUAGACUGCC, the self-cleavage amounted to 0.07.

As for GGCACAGCUCAAGAGAGCGAGGCAAAGUGGGUGUGGCUAGACUGCC, the self-cleavage came to 0.01. Then GGCACAGCUCAACAAAGCGUGGCAAACUGGCUGUGGCUGGACUGCC, with 0.16.

For the variant GGCACAGCUCAACAAAGCUUGGCAAAGUGGCUGUGGCUAGACUGCC, the self-cleavage was 0.01.

As to GGCACAGCUAAACACAUCUUGGCAAAGUGGCUGUGGCUAGAUUGAC, the self-cleavage was found to be 0.02. Regarding GGCACAGCUAAACACAGUGUGGCAAAGUGGCUGUGGCUACACUGCC, the self-cleavage stood at 0.02. GGCACAGGUCAACACAUUGUGUCAAAGUGGUUGUGGCUAGACUGCG: the self-cleavage was 0.03. Then GGCACAGCUAAACACAGCGUGGCACAUUGGCUGUGGCUAGACUGCC, with 0.02; and GGCACAGCUCAAAACAGCGUGGCAAAGUGGCCGUGGCUAAAUUGCU, with 0.16.

With GGCACAGAUCAACACAGCGUGGCAAAGUCGCUGUGGCUAGACUGCC, the self-cleavage is 0.09. Then GGCACAGCUCAACACAGCGUUGCAAAGUGGUUGUGGCUAGAGUGCC, with 0.08; and GGCACAACUCAACACAGCGUAGCAAAGUGGCUGUGGCUAGACCGCC, with 1.39; and GGCACAGCUCAACACAGCGUGGCCAAGUUGCUGUGGCUAGACUGCC, with 0.07. Then GGCACAGCUCAACACAGCGUGGCUAAAUGGCUGUGUCUAGACUGCC, with 0.04; and GGCACAGCUCAACACAAAGUGGCAAAGUGGCUGUGGGUAGACUGCC, with 0.05. Then GGCACAGCUCAACACAGCGUGGCAUAGUGGAUGUGGCUAGACUGCC, with 0.02; and GGCACAUAUCAACAAAGCGUGGCAAAGUGGCUGUCGCUACACUGCC, with 0.2; and GGCACAGGUCUACACAGCGUGGCAAAGUCGCUGUGGCUAGACUGCC, with 0.01.

Turning to GGCACAGUUCAACACAGCGUGGCUAAGUGACUUUGGCUAGACUGCC, the self-cleavage is 0.13. Then GGCACAGCUUAACACAGCGUGGCAAAGUGGCUGGGGCUAGACUGCC, with 0.02; and GGCACAGUUCAGCACAGCGUGGCAAAGUGGCUGUGGCUAGACUGAC, with 0.06. Then GGCACAGCUGAUGACAGCGUGGCAAAGUGGCUGUGGCUAGACUGCC, with 0.02; and GGCACAGCUCAACACAUCGUCGCAAAGUGGCUGUGGCUAUACUGCC, with 0.03; and GGCACAGCUCAACAUAGCGUGCCAAAGUGGCUGUUGCUAGAGUGCC, with 0.01. Then GGCACAGCUCAACACAGCGUGGCUAAGUGGCUGUGGCUAGACCGCC, with 0. GGCACAGCUCAACACAGCGUGACAAAGUGGCUGUGGCUAGACUACC: the self-cleavage is 0.06.

For the variant GGCACAGCUCAACAAAGCUUGGCAGAGUGGCUGUGGCUAGACUGCC, the self-cleavage is 0.01. Then GGCACAGCUAAACACAGCGUGUCAAAGUGGUUGUGGCUAGACUGCC, with 0.03. Then GGCACAGCUCAACACAGCGUGGCAAAAUGGAUGUGGGUAGACUGGC, with 0.05. Then GGCACAGCUCAACACAGAGUGGCAAAGUGGAUGUGACUAGACUGCC, with 0.05; and GGCACAGCUCAACAGAGCGUCGCAAAGUGGCUGUGGCUAGGCUGCC, with 0.03. For the variant GGCACAGUUCAACACAGCGUGCCAAAGUGGCUGUGGCUAGACUGCC, the self-cleavage came out at 0.04. Then GGCACAGCUCAACACAGCAUGACAAAGUGGCUGUGGCUAGACUGCC, with 0.08; and GGCACAACUCAACACAGCGUGGUAAAGUGGCUGUGGCUGGACUGCC, with 0.1; and GGCACAGCUCAACACAGGGUGGCAAACUGGCUGUGGCUUGACUGCC, with 0.05. Then GGCACAGCUCAACAAAGCGUGGGAAAGUAGCUGGGGCUAGACUGCC, with 0.07; and GGCACAGCUUAACACAGCGUGGCAAAGUGGCUGUGGCUAGGCUGCC, with 0.01; and GGCACAGUUCAACACAGCGUGGCAAAGUGGCUGUGGCUAGAGUGCC, with 0.23. As to GGCACAGCUCAACACAGCGUGUCACAGUGCCUGUGGCUAGACUGCC, the self-cleavage was found to be 0.08.

Take GGCACAGCUCAACACAGCGUGGCAAAGUGGCUGUGGACAGAUUGCC: the self-cleavage worked out at 0.08.

Turning to GGCACAGCUCAACACAGCGUGGCAAACUUGCGGUGGCUAGACUGCC, the self-cleavage was 0.08. Then GGCACAGCUCAACACAUCGAGGCAAAUUGGCUGUGGCUAGAAUGCC, with 0.04; and GGCACAGCUCAACACUGCGUGGCAACGUGGCUGUGGCUAGACUGCC, with 0.05. As for GGCACAGCUAAACACAGCGUGGCAAAGUGGCUGUGGCCGGUAUGCC, the self-cleavage is 0.04. Then GGCACAUCUCAACACAGCGUGGCAAGGUGGCUGUGGCUAGACUGCC, with 0.07. Then GGCACAGCUCAACACAGCGUGGAAAAGUGGUUGUGGCUAGACUGCC, with 0.02; and GGCACAGCUCAACACGGCGUGGCAAAGUGGCUGUGGCUAGACGGCC, with 0.08; and GGCACAGCUCAACACAGCGUGGCAAAGUGGAUGUGGCUAAACUGCC, with 0.03. Then GGCACAGCUUAUCACAGCGUGGCAAAGUGGCUGUGGCUAGACUGCC, with 0.04. As to GGCACAACUCAACACAACGUGGCAAAGUGGCUGUGGCUAGACUGCC, the self-cleavage turned out to be 0.03. Then GGCACAGCUCAAAACAGCGUGGCAAAGUGGCUGUCGCUAGACUGCC, with 0.08; and GGCACAGCUCAACAAAGCGUGGCUAAGUGGCUGUGACUAGACUGCC, with 0.03. In the case of GGCACAGCUCAACACGGCGUGGCACAGUCGCUGUGGCUAGACAGCC, the self-cleavage worked out at 0.01.

Turning to GGCACAGCUCAACAGAGCAUGGCAAAGUGGCUGUGGCUAGACUGCC, the self-cleavage stood at 0.02.
